# Experimental data as given in PubChem BioAssay AID1347120 (National Center for Advancing Translational Sciences (NCATS), 2019).
# Hit rate of the full screen: of about 390,000 compounds, about 930 (0.24%) were called active. The inconclusive results got no clear call from the source; some entries with a clear call stand among them for comparison. The call rests on the fitted dose curve; in most records, active means well fitted activation curve with a large enough effect; inconclusive means small, poorly fitted or top-dose-only effect; inactive means no such curve, though single readings can be large or run the other way. Where the call is inconclusive, the potency comes from a doubtful curve fit.
# Experiment: qHTS for Suppressors of FUS Proteinopathy: Primary screen using FUS-linked yeast assay; further: nearly all actives have a fitted effect of over 55% in size;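 on growth rescue (activation): plate controls were DMSO vehicle for no effect and reference control for full effect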
# Conditions: S. cerevisiae FUS-expressing, OD600, 24 h; Potency: growth rescue; growth rescue (activation): at 76.6 µM (top of the series)
# Summary of the method: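 Cultures pregrown in 2.5% raffinose medium are shifted to minimal medium containing 2% galactose to express toxic FUS. Compounds are tested at several concentrations. After 24hr at 30C, growth is quantified at 600 nm absorbance.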
# Potency means the concentration at half of the fitted maximal effect; tags describe the fitted curve by direction and shape.
Structure (SMILES),growth rescue (activation),Potency
CCN(Cc1ccccc1)C(=O)C1C2C=CC3(CN(Cc4ccccc4)C(=O)C13)O2 (stereo not given),inactive: -4.14%,
O=S1(=O)c2c(NCc3ccco3)cccc2Oc2ccccc2CN1Cc1cn(Cc2ccc(Cl)cc2)nn1,,"inconclusive: 20 µM [activator, partial curve, poor fit]"
CC1(C(=O)NCCc2c[nH]c3ccccc23)C=CC2(CCCCC2)N1C(=O)c1ccccc1 (stereo not given),,"inconclusive: 35.5 µM [activator, partial curve, poor fit]"
Oc1ccc(/C(Cc2ccc3ccccc3n2)=N\Nc2ccccc2)c(O)c1,,"inconclusive: 39.8 µM [activator, partial curve, poor fit]"
COc1ccc([C@H]2CC(=O)C=C(c3ccc(F)cc3OCc3ccccc3)C2)cc1OC,,"inconclusive: 28.2 µM [activator, partial curve, poor fit]"
CCN(C[C@@H]1[C@@H](c2ccccc2)[C@H](CO)N1S(C)(=O)=O)C(=O)C1CCC1,inactive: -7.02%,
O=S1(=O)c2ccc(N3CCCC3)cc2Oc2ccccc2CN1Cc1cn(Cc2ccccc2C(F)(F)F)nn1,,"inconclusive: 7.94 µM [activator, full curve, poor fit]"
CCCN(CC(=O)Nc1ccccc1OC)C(=O)c1ccc(S(=O)(=O)Nc2ccccc2OC)cc1,,"inconclusive: 25.1 µM [activator, partial curve]"
O=C(NC1CC(=O)N(c2ccc(F)cc2)C1)c1ccco1 (stereo not given),inactive: 7.73%,
CCCCc1ccc(N/C(N)=N/c2nc(C)cc(C)n2)cc1,,"inconclusive: 44.7 µM [activator, single point]"
CN(C)c1ccccc1-c1cc(NC=O)c2ncc(-c3cccc(C(F)(F)F)c3)n2c1,,"inconclusive: 35.5 µM [activator, single point]"
O=C(C1CCCN(S(=O)(=O)c2cccc3nonc23)C1)N1CCC(Cc2ccccc2)CC1 (stereo not given),,"inconclusive: 5.62 µM [activator, partial curve, poor fit]"
COc1ccc(CCNC(=O)c2ccc(CSc3ccc(Cl)cc3)o2)cc1OC,,"inconclusive: 30.6 µM [activator, single point]"
COc1ccccc1NC(=O)CSc1nc(O)cc(=O)n1C,,"inconclusive: 15.8 µM [activator, partial curve, poor fit]"
Cc1cccc(COC[C@H](CC(C)C)N2CCN(C(=O)c3ccc(C(F)(F)F)cc3)CCC2=O)c1,,"inconclusive: 28.2 µM [activator, single point]"
CC(=O)CC[C@@H]1CC[C@]2(CCCN(S(=O)(=O)C3CCCCC3)C2)O1,inactive: 15.1%,
COc1cccc(C(NC(C)=O)c2nc(-c3cccs3)cs2)c1 (stereo not given),inactive: -7.9%,
Cc1ccc(NC(=O)c2c(C(F)(F)F)nn(C)c2SCc2ccc(Cl)cc2)cc1C,,"inconclusive: 3.55 µM [activator, partial curve, poor fit]"
O=C(Nc1ccc(N2CCCC2)c(Cl)c1)c1ccc2c(c1)OCCO2,,"inconclusive: 20 µM [activator, partial curve, poor fit]"
O=C(CSc1nc(=O)n(CCCN2CCOCC2)c2c1CCC2)Nc1ccc(F)cc1,inactive: -22%,

Structure (SMILES),growth rescue (activation),Potency
O=C(N/C(=C/c1cccc(Br)c1)c1nc(=S)[nH][nH]1)c1ccccc1,,"inconclusive: 22.4 µM [activator, partial curve]"
CC1CCc2c(sc(N)c2C(N)=O)C1 (stereo not given),,active: 31.6 µM
CCCOc1ccc(C2C(C(=O)/C=C/c3ccco3)=C(O)C(=O)N2CCN2CCOCC2)cc1OC (stereo not given),,"inconclusive: 25.1 µM [activator, single point]"
CC(=O)Nc1ccc(-c2ccc(NC(C)=O)c(O)c2)cc1O,,"inconclusive: 39.8 µM [activator, single point]"
CN(CC(=O)NC(=O)NCc1ccccc1)CC(=O)Nc1ccc(Cl)c(Cl)c1,,"inconclusive: 28.2 µM [activator, single point]"
Cc1cccc(NC(=O)C2CCCN2S(=O)(=O)c2ccc3nc(-c4ccccc4)[nH]c3c2)c1 (stereo not given),inactive: 18.7%,
CC(=O)Nc1sc(N/N=C/c2ccc(C)cc2)nc1-c1ccc(C)cc1,,"inconclusive: 35.5 µM [activator, single point]"
CCOC(=O)c1c(NC(C)=O)sc2c1CCC(C=NCCCN(CC)CC)=C2Sc1ccccc1,,"inconclusive: 31.6 µM [activator, partial curve, poor fit]"
Cc1ccc(S(=O)(=O)NC(Cc2ccccc2)C(=O)NN)cc1 (stereo not given),inactive: 7.05%,
O=C(O[C@@H]1[C@H](Cc2ccccc2)NS(=O)(=O)[C@H]2C[C@@H]3C=C[C@]12O3)c1ccccc1Br,,"inconclusive: 31.6 µM [activator, single point]"
Cc1cc(Nc2ccccc2C)n2nc(Cc3ccc(Cl)cc3)nc2n1,inactive: 36.2%,
Cc1ccccc1-c1nc(CN2CCC(C(=O)NCc3ccc(F)cc3)CC2)c(C)o1,inactive: 5.75%,
Cc1ccc(Cn2c(SCCN3CCCCC3)nc3c2c(=O)n(C)c(=O)n3C)cc1,,"inconclusive: 0.891 µM [activator, partial curve, poor fit]"
COc1cccc(C(=O)Nc2cccc(-c3ccccc3)c2)c1,inactive: 12%,
COc1ccc(Cn2ccnc2SCC(=O)Nc2nc3ccccc3s2)cc1,,"inconclusive: 50.1 µM [activator, single point]"
Cc1cc(C)cc(-n2ccnc2SCC(=O)O)c1,inactive: -0.307%,
O=C/C(=C\Nc1ccc(S(=O)(=O)CCO)cc1)c1nc2cc(Cl)ccc2o1,,"inconclusive: 44.7 µM [activator, single point]"
Nn1c(Nc2ccccc2)nc2sc3c(c2c1=O)CCC3,,"inconclusive: 28.2 µM [activator, partial curve, poor fit]"
CCCCCN(C(=O)CCC(=O)OCC(=O)N1CCCCC1CC)c1c(N)n(CCCC)c(=O)[nH]c1=O (stereo not given),,"inconclusive: 15.8 µM [activator, partial curve]"
CN(C)C(=O)CCc1ccc2c3c([nH]c2c1)[C@]1(C)[C@@H](C(=O)N2CCCCC2)C[C@H](CC(=O)NCC24CC5CC(CC(C5)C2)C4)C(=O)N1CC3,,"inconclusive: 22.4 µM [activator, partial curve, poor fit]"
